No constants are given. Whether binding was seen depends on the method and setting. For part of these data: Binding seen in cells or lysates may run through a third protein. Some entries that bind do so weakly or less than the wild type.
Columns and labels:
[1] = molecular target: HIRA(Δ759–782), YFP-tagged (human) (UniProt P54198); experiment: co-IP; GFP-Trap agarose beads on nuclear extracts (300 mM NaCl) of U2OS cells transfected with YFP-tagged HIRA constructs, alone or together with HIRA-HA; overnight at 4 °C, 150 mM NaCl, 0.5% Nonidet-P40 substitute, washes 300 mM NaCl; western blot for endogenous HIRA, UBN1, CABIN1, ASF1a or HA; one panel with cells treated with siRNA control or siCABIN1
[2] = molecular target: HIRA(W799A–D800A), YFP-tagged (human) (UniProt P54198); experiment: as above
HIRA-YFP wt (human) = HIRA-YFP wt (human) (UniProt P54198); experiment: as above
[3] = molecular target: HIRA(I461D), YFP-tagged (human) (UniProt P54198); experiment: as above
[4] = molecular target: HIRA(Δ759–863), YFP-tagged (human) (UniProt P54198); experiment: as above
[5] = molecular target: HIRA(Δ862–962), YFP-tagged (human) (UniProt P54198); experiment: as above
[6] = molecular target: HIRA(Δ629–789), YFP-tagged (human) (UniProt P54198); experiment: as above
[7] = molecular target: HIRA(Δ759–782 + R227K), YFP-tagged (human) (UniProt P54198); experiment: as above
[8] = molecular target: HIRA(1–440), YFP-tagged (human) (UniProt P54198); experiment: as above
[9] = molecular target: HIRA(492–1017), YFP-tagged (human) (UniProt P54198); experiment: as above
[10] = molecular target: HIRA(R227K), YFP-tagged (human) (UniProt P54198); experiment: as above
[11] = molecular target: recombinant human HIRA(661–1017) (human) (UniProt P54198); experiment: SEC; purified HIRA(661–1017) alone on a size-exclusion column; 20 mM Tris pH 8.0, 300 mM NaCl, 1 mM TCEP; both purified

The chains behind the UniProt entries cited, without tags or fusion partners. Where a name states a change or a piece, a line headed by the entry shows the natural chain unless it says otherwise. A line that says so, or that is headed by a name, gives the form on record, which may keep a tag or linker. Residues count along the entry.
UniProt P54198: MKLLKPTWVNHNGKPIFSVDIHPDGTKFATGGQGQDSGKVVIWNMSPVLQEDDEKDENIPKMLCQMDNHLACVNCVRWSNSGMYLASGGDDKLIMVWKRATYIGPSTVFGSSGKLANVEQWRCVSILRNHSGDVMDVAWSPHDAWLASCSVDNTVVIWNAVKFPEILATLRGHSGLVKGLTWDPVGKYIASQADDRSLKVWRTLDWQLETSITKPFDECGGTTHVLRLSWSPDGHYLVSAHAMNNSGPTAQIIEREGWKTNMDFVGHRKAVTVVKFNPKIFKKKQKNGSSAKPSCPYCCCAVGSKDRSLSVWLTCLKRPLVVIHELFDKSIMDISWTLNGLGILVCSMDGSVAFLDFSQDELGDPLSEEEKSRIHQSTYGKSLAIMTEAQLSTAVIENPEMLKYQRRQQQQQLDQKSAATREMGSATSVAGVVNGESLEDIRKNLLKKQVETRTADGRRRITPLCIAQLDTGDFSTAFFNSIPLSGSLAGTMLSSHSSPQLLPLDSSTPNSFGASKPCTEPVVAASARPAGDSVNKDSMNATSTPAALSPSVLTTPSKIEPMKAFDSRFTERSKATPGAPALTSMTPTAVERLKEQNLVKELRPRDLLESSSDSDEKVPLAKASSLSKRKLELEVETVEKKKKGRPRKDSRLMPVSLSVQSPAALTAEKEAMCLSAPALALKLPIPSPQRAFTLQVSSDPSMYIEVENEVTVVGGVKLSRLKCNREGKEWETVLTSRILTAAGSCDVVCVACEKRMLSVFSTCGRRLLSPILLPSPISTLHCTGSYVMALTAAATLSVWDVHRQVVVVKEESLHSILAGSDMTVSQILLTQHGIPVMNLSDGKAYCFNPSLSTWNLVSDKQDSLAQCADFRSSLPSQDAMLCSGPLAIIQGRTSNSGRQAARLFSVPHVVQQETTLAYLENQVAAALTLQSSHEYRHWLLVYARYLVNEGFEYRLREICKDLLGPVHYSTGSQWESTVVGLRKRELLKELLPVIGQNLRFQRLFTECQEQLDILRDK
HIRA(1–440), YFP-tagged: residues 1-440 of P54198
HIRA(492–1017), YFP-tagged: residues 492-1017 of P54198
HIRA(Δ759–782), YFP-tagged (P54198, form named): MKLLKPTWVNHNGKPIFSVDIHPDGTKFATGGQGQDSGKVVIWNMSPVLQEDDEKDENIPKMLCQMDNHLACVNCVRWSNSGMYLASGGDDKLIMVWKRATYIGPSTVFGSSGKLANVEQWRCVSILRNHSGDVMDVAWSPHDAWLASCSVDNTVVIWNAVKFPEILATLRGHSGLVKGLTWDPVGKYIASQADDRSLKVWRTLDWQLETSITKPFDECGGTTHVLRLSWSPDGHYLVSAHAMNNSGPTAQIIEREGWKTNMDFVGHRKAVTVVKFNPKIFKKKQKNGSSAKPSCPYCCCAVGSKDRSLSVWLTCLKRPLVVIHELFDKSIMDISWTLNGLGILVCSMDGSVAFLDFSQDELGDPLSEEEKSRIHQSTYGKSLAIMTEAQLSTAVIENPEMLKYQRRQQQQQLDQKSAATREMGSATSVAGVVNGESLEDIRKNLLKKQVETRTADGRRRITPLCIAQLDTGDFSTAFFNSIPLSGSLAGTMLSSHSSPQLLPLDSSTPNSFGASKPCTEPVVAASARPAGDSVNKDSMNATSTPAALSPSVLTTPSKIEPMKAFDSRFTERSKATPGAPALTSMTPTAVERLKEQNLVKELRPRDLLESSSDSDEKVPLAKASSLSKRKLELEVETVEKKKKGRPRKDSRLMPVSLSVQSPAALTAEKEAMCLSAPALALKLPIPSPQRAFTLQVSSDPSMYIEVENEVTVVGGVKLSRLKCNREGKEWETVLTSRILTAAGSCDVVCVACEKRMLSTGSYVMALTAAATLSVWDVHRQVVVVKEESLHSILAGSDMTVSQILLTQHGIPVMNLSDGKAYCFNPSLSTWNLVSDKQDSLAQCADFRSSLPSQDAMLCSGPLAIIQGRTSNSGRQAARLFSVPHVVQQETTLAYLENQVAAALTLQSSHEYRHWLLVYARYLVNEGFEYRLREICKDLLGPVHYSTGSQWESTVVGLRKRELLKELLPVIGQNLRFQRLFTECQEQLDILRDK
HIRA(Δ759–863), YFP-tagged (P54198, form named): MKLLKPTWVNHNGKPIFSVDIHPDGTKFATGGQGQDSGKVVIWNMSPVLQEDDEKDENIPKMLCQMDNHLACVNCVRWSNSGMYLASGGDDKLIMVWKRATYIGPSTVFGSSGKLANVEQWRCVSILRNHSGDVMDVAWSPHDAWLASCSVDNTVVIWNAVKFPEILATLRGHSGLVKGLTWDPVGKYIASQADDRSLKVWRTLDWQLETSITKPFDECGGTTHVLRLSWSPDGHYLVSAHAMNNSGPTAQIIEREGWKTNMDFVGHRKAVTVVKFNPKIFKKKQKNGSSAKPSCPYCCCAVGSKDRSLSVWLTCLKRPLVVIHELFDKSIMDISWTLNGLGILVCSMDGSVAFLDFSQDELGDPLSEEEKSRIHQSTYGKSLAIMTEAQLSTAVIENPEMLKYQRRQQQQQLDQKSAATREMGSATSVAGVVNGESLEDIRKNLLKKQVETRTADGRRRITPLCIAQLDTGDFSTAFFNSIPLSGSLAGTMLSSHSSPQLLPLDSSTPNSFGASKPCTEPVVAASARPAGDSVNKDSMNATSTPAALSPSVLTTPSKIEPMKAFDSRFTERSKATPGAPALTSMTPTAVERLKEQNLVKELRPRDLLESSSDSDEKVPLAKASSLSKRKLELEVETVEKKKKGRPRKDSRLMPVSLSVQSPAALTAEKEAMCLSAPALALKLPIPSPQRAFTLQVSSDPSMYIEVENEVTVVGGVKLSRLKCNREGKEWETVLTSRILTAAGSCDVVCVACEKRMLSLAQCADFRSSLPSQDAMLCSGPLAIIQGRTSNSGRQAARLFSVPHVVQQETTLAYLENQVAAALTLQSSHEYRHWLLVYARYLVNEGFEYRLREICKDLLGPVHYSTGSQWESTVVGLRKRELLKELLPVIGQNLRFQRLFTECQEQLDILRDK
HIRA(Δ862–962), YFP-tagged (P54198, form named): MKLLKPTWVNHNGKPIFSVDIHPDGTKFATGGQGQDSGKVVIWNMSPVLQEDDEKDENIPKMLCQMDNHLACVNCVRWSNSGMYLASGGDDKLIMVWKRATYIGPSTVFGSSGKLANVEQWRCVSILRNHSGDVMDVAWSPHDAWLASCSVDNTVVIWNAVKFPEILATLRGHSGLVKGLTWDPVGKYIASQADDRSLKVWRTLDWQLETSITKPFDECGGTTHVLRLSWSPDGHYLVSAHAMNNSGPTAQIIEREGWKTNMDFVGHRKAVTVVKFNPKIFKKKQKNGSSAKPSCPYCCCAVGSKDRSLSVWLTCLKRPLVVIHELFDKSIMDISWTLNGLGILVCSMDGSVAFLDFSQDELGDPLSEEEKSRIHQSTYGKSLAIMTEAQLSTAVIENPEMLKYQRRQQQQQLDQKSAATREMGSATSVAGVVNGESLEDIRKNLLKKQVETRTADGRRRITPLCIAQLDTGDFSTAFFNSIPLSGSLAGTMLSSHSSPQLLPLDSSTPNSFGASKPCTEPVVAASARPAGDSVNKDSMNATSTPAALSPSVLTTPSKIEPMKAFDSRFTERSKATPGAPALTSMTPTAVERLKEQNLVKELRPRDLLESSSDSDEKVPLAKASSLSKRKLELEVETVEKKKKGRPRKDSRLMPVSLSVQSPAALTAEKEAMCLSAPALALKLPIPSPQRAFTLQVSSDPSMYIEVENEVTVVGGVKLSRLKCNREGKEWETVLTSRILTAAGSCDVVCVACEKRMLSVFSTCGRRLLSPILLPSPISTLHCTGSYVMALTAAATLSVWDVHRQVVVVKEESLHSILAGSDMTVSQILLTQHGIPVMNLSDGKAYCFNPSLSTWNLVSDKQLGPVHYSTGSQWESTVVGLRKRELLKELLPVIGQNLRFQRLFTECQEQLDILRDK
HIRA(Δ629–789), YFP-tagged (P54198, form named): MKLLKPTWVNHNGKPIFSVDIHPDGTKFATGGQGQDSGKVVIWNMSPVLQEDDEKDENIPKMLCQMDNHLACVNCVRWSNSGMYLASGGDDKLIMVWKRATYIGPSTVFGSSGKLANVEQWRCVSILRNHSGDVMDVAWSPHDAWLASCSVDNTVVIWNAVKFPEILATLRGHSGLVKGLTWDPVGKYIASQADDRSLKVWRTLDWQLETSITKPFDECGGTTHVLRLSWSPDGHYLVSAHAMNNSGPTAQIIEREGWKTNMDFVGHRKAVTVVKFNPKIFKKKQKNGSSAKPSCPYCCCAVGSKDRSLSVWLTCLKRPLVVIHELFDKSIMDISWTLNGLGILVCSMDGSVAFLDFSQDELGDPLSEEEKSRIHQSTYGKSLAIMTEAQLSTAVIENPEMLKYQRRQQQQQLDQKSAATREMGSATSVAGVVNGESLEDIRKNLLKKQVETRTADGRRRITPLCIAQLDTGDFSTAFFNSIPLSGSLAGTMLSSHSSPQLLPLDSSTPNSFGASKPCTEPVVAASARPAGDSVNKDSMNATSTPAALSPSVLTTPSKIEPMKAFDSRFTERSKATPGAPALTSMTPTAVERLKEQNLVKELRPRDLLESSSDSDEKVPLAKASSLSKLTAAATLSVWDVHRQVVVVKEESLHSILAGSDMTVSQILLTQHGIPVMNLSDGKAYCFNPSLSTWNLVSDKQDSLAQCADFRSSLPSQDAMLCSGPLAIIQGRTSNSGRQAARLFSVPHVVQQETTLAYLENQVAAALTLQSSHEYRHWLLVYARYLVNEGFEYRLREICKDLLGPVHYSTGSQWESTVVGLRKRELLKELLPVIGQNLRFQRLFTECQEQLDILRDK
HIRA(Δ759–782 + R227K), YFP-tagged (P54198, form named): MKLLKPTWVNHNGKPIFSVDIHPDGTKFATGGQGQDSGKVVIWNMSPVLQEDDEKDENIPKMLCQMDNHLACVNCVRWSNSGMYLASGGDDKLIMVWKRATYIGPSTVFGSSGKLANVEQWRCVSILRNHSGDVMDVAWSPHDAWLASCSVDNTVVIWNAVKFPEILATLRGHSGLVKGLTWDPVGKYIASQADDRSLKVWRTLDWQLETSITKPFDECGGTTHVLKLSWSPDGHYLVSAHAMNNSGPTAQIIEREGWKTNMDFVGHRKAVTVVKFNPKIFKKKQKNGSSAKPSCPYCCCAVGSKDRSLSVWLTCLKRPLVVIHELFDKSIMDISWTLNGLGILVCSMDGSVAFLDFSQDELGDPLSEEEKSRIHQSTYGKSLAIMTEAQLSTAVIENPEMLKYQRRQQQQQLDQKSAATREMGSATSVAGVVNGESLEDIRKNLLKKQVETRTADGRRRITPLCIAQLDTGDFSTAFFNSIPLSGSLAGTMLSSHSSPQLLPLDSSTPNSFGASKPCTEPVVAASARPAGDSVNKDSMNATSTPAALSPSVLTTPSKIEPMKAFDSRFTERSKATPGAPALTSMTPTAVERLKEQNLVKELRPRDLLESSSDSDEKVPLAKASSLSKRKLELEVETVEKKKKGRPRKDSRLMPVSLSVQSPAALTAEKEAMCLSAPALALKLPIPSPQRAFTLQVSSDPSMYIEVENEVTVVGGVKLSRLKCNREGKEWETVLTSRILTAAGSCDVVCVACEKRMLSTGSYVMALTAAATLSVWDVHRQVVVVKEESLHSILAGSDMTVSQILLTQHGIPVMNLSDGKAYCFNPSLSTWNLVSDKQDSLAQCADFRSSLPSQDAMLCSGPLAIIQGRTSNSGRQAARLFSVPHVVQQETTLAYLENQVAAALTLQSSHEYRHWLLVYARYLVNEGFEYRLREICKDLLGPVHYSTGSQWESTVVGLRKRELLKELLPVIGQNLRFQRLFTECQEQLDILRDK
UniProt Q9Y294: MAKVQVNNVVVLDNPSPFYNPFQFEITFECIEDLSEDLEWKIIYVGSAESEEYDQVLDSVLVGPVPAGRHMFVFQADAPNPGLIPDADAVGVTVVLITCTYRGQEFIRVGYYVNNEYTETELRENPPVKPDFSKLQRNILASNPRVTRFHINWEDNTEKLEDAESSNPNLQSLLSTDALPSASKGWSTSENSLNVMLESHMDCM

| Substance | binding [1] | binding [2] | binding (HIRA-YFP wt (human)) | binding [8] | binding [9] | further results |
| --- | --- | --- | --- | --- | --- | --- |
| HIRA-HA wt (from UniProt P54198 1-1017) | – | – | – | – | – | binding [4]: binds; binding [5]: binds; binding [6]: binds |
| Ubinuclein 1 (UBN1), endogenous (from UniProt Q9NPG3 1-1134) | binds | binds | binds | binds | binds | binding [7]: no binding; binding [10]: binds |
| recombinant human HIRA(661–1017) (from UniProt P54198 661-1017) (domain or fragment) | – | – | – | – | – | binding [11]: binds |

Continued, in another order:

| binding [1] | binding [2] | binding (HIRA-YFP wt (human)) | binding [8] | binding [9] | Substance | further results |
| --- | --- | --- | --- | --- | --- | --- |
| binds | binds | binds | – | – | Anti-silencing factor 1 a (ASF1a), endogenous (from UniProt Q9Y294 1-204) | binding [3]: no binding |
| – | no binding | – | no binding | binds | endogenous HIRA (from UniProt P54198 1-1017) | – |
